The other results are listed elsewhere or left out.
Legend:
HSkMC = human skeletal muscle cells; assay: cytotoxicity call (relative viability < 0.9); details: 10 µM
HepG2 = assay: cytotoxicity call (relative viability < 0.9); details: 10 µM
S. aureus RN4220 = assay: growth inhibition call (relative growth <= 0.2); details: 50 µM

SMILES | cytotoxicity call (HSkMC) | cytotoxicity call (HepG2) | growth inhibition call (S. aureus RN4220)
COc1ccc(S(=O)(=O)Nc2ccc3c(c2)CC(=O)N([C@@H](C)CO)C[C@H](C)[C@H](CN(C)CC2CC2)O3)cc1 | inactive | inactive | inactive
CC(=O)C12OC1(C)CC1C3CC=C4CC(O)CCC4(C)C3CCC12C (stereo not drawn) [16beta-METHYL-16(17)-EPOXY-5-PREGNENOLONE] |  |  | inactive
C[C@@H]1CN([C@H](C)CO)C(=O)c2cc(NS(=O)(=O)c3ccccc3)ccc2O[C@@H](C)CCCCO[C@H]1CN(C)Cc1ccccc1 | inactive | inactive | inactive
COc1ccc(CN(C)C[C@@H]2OCCCC[C@H](C)Oc3ccc(NS(=O)(=O)c4ccc(OC)cc4)cc3C(=O)N([C@@H](C)CO)C[C@H]2C)cc1 | inactive | inactive | inactive
CC(C)(CO)C(O)C(=O)NCCC(=O)[O-].[Na+] (stereo not drawn) [PANTOTHENIC ACID(d) Na salt ] | inactive | inactive | 
C[C@@H]1CCCCO[C@@H](CN(C)C(=O)Nc2ccccc2)[C@@H](C)CN([C@H](C)CO)C(=O)c2cc(NC(=O)CCC(F)(F)F)ccc2O1 | inactive | inactive | inactive
CC(=O)C12OC1(C)CC1C3CC=C4CC(O)CCC4(C)C3CCC12C (stereo not drawn) [16beta-METHYL-16(17)-EPOXY-5-PREGNENOLONE ] | inactive | inactive | 
CC(=N)NCCCC[C@H](N)C(=O)O | inactive | inactive | inactive
CC1=CCCC(C)=CCC(C)(C)C=CC1 [HUMULENE (alpha)] |  |  | inactive
CC1=CCCC(C)=CCC(C)(C)C=CC1 [HUMULENE (alpha) ] | inactive | inactive | 

— the antibiotic and cytotoxicity screens of Wong et al. (2023)
